PubChem BioAssay AID463173 (ICCB-Longwood Screening Facility, Harvard Medical School, 2010)
About 1,700 (3.3%) of roughly 52,000 compounds were called active. No stated cut-off is given here; in the data, active means survival mostly below about 52% (no sharp cut-off); inactive means mostly above about 56%. The list shows a part of the results.

Tested on: Wild type
Assay: growth inhibition of S. aureus wild type versus tarO mutant, primary screen, teichoic acid synthesis inhibitors, RN4220, OD600 (AID 463173)
Details: S. aureus RN4220 wild type/DeltatarO growth, OD600, 18 h, active compounds read low, screened at 18.75 µg/mL (by protocol)

Row | Compound | survival
1 | CCc1ccccc1NC(=O)N1CCC2(CC1)Oc1ccccc1C(=O)N2Cc1ccccc1F | inactive: 84%
2 | CCC(=O)Nc1ccc(-c2nn3c(CC)nnc3s2)cc1 | inactive: 95%
3 | COc1ccc(CCN2C(=O)N(c3ccc(F)cc3)C(=O)C2CC(=O)Nc2ccc(OC)cc2)cc1 (stereo not drawn) | inactive: 72%
4 | CCOc1ccc(C(=O)NCC(c2ccc3c(c2)OCO3)N2CCN(c3ccc(F)cc3)CC2)cc1 (stereo not drawn) | inactive: 85%
5 | CC(=O)Nc1ccc(NS(=O)(=O)c2ccc3[nH]c4c(c3c2)CCCCC4)cc1 | inactive: 69%
6 | Cc1ccc(-n2nc3c(N4CCC(C(=O)NCCc5ccccc5C)CC4)nnc(C)c3c2C)cc1 | inactive: 73%
7 | CC(C)(C)c1cc(C(C)(C)C)c2oc(=O)c(-c3nc4ccc(C(=O)O)cc4[nH]3)cc2c1 | inactive: 68%
8 | CCc1ccccc1NC(=O)C(Cc1cccc(OC)c1)c1nn[nH]n1 (stereo not drawn) | inactive: 105%
9 | COc1cc(OC)c(NC(=O)N2CCN3CCCCC3C2)cc1Cl (stereo not drawn) | inactive: 83%
10 | Cn1c(/C(C#N)=C/C2CC=CCC2)nc2ccccc21 (stereo not drawn) | inactive: 114%
11 | CC1CN(Cn2[nH]c(=O)ccc2=O)CC(C)O1 (stereo not drawn) | inactive: 101%
12 | Cc1ccc(CN2CCN(C3CCN(C(=O)c4ccc(C)cc4)CC3)C(=O)C2=O)cc1 | inactive: 77%
13 | CC1CCN(Cc2c(O)ccc3c(=O)c(-c4ccc(Cl)cc4)c(C(F)(F)F)oc23)CC1 | inactive: 67%
14 | CCOC(=O)c1cnc2cc(-c3ccc(C)cc3)nn2c1C | inactive: 89%
15 | Nc1nncn1C(=O)COc1ccc(Cl)cc1 | inactive: 110%
16 | CC(=O)N1CCc2cc(S(=O)(=O)NC(CC(C)C)C(=O)NCCc3ccccc3)ccc21 (stereo not drawn) | inactive: 72%
17 | CCOC(=O)c1ccccc1NC(=O)CSc1cc(C)[nH]c(=O)n1 | inactive: 69%
18 | COc1ccc(Cl)cc1NC(=O)CCN1C(=O)c2ccccc2Sc2ncccc21 | inactive: 79%
19 | CC(C)C(=O)N1c2nc(C(C)C)nn2C2(CCCCC2)[C@@H]2CCCC[C@@H]21 | inactive: 100%
20 | COc1cc(-c2nnc(SCC(=O)Oc3ccccc3)o2)cc(OC)c1OC | inactive: 83%

Row | Compound | survival
21 | COc1ccc(OC)c(Nc2ncc3c(n2)CCN(Cc2cc(OC)c(OC)c(OC)c2)C3)c1 | inactive: 81%
22 | Cc1cc(C)c2c(=O)cc(CSc3nnc(-c4ccccc4)n3C)[nH]c2c1 | inactive: 74%
23 | Cc1ccc(Nc2nc3ccccc3c3nnc(C)n23)cc1Cl | inactive: 45%
24 | CSCCC(NS(=O)(=O)c1cccs1)C(=O)Nc1ccc(C)c(Cl)c1 (stereo not drawn) | inactive: 81%
25 | COC(=O)c1ccc(Cn2c(SCC(=O)NCc3ccccc3)nc3ccccc32)cc1 | inactive: 73%
26 | CCOc1ccc(CCNC(=O)c2ccc(CS(=O)(=O)c3ccccc3C)o2)cc1OCC | inactive: 77%
27 | CCc1ccccc1Nc1ncnc2c1cnn2-c1ccc(Cl)cc1 | inactive: 66%
28 | CCOC(=O)c1cnc2ccc(C(=O)OC)cc2c1Nc1ccc(N2CCOCC2)cc1 | inactive: 115%
29 | COc1ccc(Cl)cc1NC(=O)c1ncn(-c2ccccc2)n1 | inactive: 67%
30 | COc1ccc(OC)c(NC(=O)Cc2c(C)n(C(=O)c3ccc(Cl)cc3)c3ccc(OC)cc23)c1 | inactive: 76%
31 | CC(=O)c1ccc(NC(=O)CSc2nnc(NC(=O)Nc3ccccc3)s2)cc1 | inactive: 88%
32 | CCc1ccc(NC(=O)Cn2c(=O)n(-c3ccccc3)c(=O)c3ccc(C(=O)NCc4ccc5c(c4)OCO5)cc32)cc1 | inactive: 129%
33 | Cc1ccc(C)c(Cn2c(=O)n(Cc3ccco3)c(=O)c3oc4ccccc4c32)c1 | inactive: 96%
34 | CC(=O)c1cccc(NC(=O)CN2C(=O)c3cccnc3Sc3ccccc32)c1 | inactive: 99%
35 | O=C(Nc1ccc(N2C(=O)C=CC2=O)cc1Cl)c1ccco1 | inactive: 105%
36 | CCN1CCOC(=O)C1CC(=O)Nc1ccc(C(C)=O)cc1 (stereo not drawn) | inactive: 65%
37 | COc1cc(CN(C(=O)c2ccc(OC(C)C)cc2)C2CCS(=O)(=O)C2)cc(OC)c1OC (stereo not drawn) | inactive: 106%
38 | CCc1ccccc1NC(=O)c1sc2nc3n(c(=O)c2c1C)CCC3 | inactive: 90%
39 | O=C(NCCCc1nc2ccccc2n1Cc1ccccc1)C1CCCCC1 | inactive: 98%
40 | Cc1ccccc1OCc1ccc(-c2nc(C#N)c(N3CCN(c4ccccc4)CC3)o2)o1 | inactive: 124%

Row | Compound | survival
41 | CC(=O)Nc1ccc(/C(C)=N/NC2=NCCN2)cc1Br | inactive: 103%
42 | CCOc1ccc(CNC(=O)c2ccc(NC(=O)N3CCSc4ncccc43)cc2)cc1OC | inactive: 56%
43 | COc1cccc(Cn2c(C)c(CNCc3ccccc3Cl)c(C(=O)O)c2C)c1 | inactive: 79%
44 | CN(C)c1cc2c(cc1NC(=O)c1ccc(F)cc1)n(C)c(=O)n2C | inactive: 106%
45 | CCc1ccc(-c2cc(C)no2)cc1S(=O)(=O)Nc1ccc(C)cn1 | active: 14%
46 | CC(C)CCNC(=O)C1CCN(S(=O)(=O)c2cccc3nsnc23)CC1 | inactive: 91%
47 | CNC(=O)C1CCN(Cc2cc3ccccc3n2Cc2cccc(C)c2)CC1 | inactive: 81%
48 | Cc1cccc(-c2nnn3c2nc(NCc2ccccc2)c2ccccc23)c1 | inactive: 85%
49 | O=C(Cn1ncc2c3ccccc3n(Cc3ccc(F)cc3)c2c1=O)NCc1ccccn1 | inactive: 96%
50 | Cc1ccc(SCC(=O)Nc2ccc3oc(-c4cccc(Cl)c4)nc3c2)cc1 | inactive: 98%
51 | CC(C)(O)/C(=C\C#N)n1c(=O)oc2ccccc21 | inactive: 101%
52 | Cc1cc(-c2ccc(C)c(S(=O)(=O)NCC3CCN(Cc4ccccc4F)CC3)c2)on1 | inactive: 66%
53 | CS(=O)(=O)c1ccc2sc(N)nc2c1 | inactive: 110%
54 | O=C(NCc1ccccc1)C(=O)Nc1c2c(nn1-c1ccccc1)CSC2 | inactive: 112%
55 | Cc1ccc(C(c2c(O)cc(C)n(Cc3ccco3)c2=O)N2CCC(C)CC2)cc1 (stereo not drawn) | inactive: 69%
56 | COc1ccc(OC)c(CNCc2c(C(=O)O)n(Cc3cccc(F)c3)c3cc(OC)ccc23)c1 | active: -3%
57 | NC(=O)CN(C1CCCCC1)S(=O)(=O)c1ccc(Br)cc1 | inactive: 104%
58 | Cc1cc(C)cc(NC(=O)C2CC(=O)N(c3ccccc3)C2)c1 (stereo not drawn) | inactive: 66%
